Laboratory results reported in the supplement of paper PMC12217912.
The other results are listed elsewhere or left out. Sequences were assembled here from the parent chain. Inactive controls read about 0.05.

B1: TEV protease; numbered along this chain (parent)
chain: MGESLFKGPRDYNPISSSICHLTNESDGHTTSLYGIGFGPFIITNKHLFRRNNGTLVVQSLHGVFKVKDTTTLQQHLVDGRDMIIIRMPKDFPPFPQKLKFREPQREERICLVTTNFQTKSMSSMVSDTSCTFPSGDGIFWKHWIQTKDGQCGSPLVSTRDGFIVGIHSASNFTNTNNYFTSVPKNFMELLTNQEAQQWVSGWRLNADSVLWGGHKVFMVKPEEPFQPVKEATQL

Variants of: B1
Test: raw area under fraction-flipped curve 0-4 h after induction (AUC4h, not background-subtracted), DNA-recorder readout of cleavage of the substrate (dimensionless); higher = more cleavage of the substrate by the protease variant
Details: temperature: 34 °C; time window: 0-4 h after rhamnose induction
Procedure: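 In vivo DNA recorder in E. coli TOP10(DE3) ΔrhaA at 34 °C. Each TEVp single-site mutant (parent TEVp 0) is paired with a single-site variant of the 7-mer TEVs (canonical ENLYFQ|S). The substrate sits between flexible linkers in a Bxb1-sfGFP-TEVs-SsrA fusion, so cleavage stabilises Bxb1 and speeds flipping of a recombination array, read by NGS. The value is the raw area under the fraction-flipped curve over 0-4 h after rhamnose induction (AUC4h), with ≥20 reads per time point. It is not background-subtracted; inactive controls average about 0.047.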
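Also: Bxb1 expression induced with 0.2% (w/v) L-rhamnose at OD600 near 0.5, cultures sampled hourly, flipped fraction per protease–substrate barcode pair counted by paired-end Illumina sequencing.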

Variant | area with substrate ANLYFQS | area with substrate CNLYFQS | area with substrate DNLYFQS | area with substrate GNLYFQS | area with substrate HNLYFQS | area with substrate INLYFQS | area with substrate KNLYFQS | area with substrate LNLYFQS | area with substrate PNLYFQS | area with substrate VNLYFQS | area with substrate WNLYFQS | area with substrate YNLYFQS | area with substrate MNLYFQS | area with substrate NNLYFQS | area with substrate SNLYFQS | area with substrate TNLYFQS | area with substrate QNLYFQS | area with substrate RNLYFQS | area with substrate FNLYFQS
G162M | 0.0697 | 0.0612 | 0.0761 | 0.0659 | 0.043 | 0.0582 | 0.0499 | 0.0616 | 0.087 | 0.0706 | 0.04 | 0.0529 |  |  |  |  |  |  | 
N175F | 0.0615 | 0.0626 | 0.0636 |  | 0.0625 |  | 0.0601 | 0.054 |  | 0.0808 | 0.064 | 0.0581 | 0.0742 | 0.0485 | 0.0657 | 0.0738 |  |  | 
N175C | 0.0455 | 0.0636 | 0.0631 | 0.0692 | 0.0598 | 0.0602 |  | 0.0646 | 0.0564 | 0.0638 | 0.0669 | 0.0611 |  | 0.0489 | 0.0658 | 0.0548 | 0.0678 |  | 
S171E | 0.0563 | 0.0769 | 0.0591 |  |  |  |  | 0.0624 |  | 0.0541 | 0.0565 |  | 0.0601 |  | 0.0776 |  | 0.125 | 0.0477 | 
I167T | 0.0649 | 0.0592 | 0.059 |  | 0.0554 |  | 0.0695 | 0.067 | 0.0466 | 0.0542 |  |  |  | 0.0585 | 0.0604 | 0.0588 |  |  | 
I167W | 0.072 | 0.0598 | 0.0353 | 0.0593 | 0.0521 | 0.0593 |  | 0.0658 | 0.0569 |  | 0.0585 | 0.0583 | 0.0554 |  | 0.0557 | 0.0628 |  | 0.0563 | 
T147E | 0.0957 | 0.0604 | 0.0459 | 0.0805 | 0.06 | 0.0479 | 0.0643 | 0.0478 | 0.0453 |  | 0.059 | 0.0663 | 0.057 | 0.0587 | 0.0642 | 0.0704 |  |  | 
T147N | 0.0596 | 0.0578 | 0.0571 | 0.0606 | 0.0589 | 0.0556 |  | 0.0696 |  | 0.0603 | 0.0663 | 0.0545 | 0.0527 | 0.068 |  | 0.061 |  | 0.0481 | 0.051
T181M | 0.057 | 0.0967 | 0.0565 | 0.0622 | 0.0531 | 0.0557 | 0.0567 | 0.0564 | 0.086 |  | 0.0589 | 0.0606 |  |  | 0.0815 | 0.0609 | 0.0516 | 0.0607 | 
T181L | 0.056 | 0.0518 | 0.0645 | 0.0539 | 0.0583 |  |  |  | 0.0674 | 0.0569 | 0.0767 | 0.0538 |  |  |  |  | 0.0812 |  | 
F163V | 0.0879 | 0.0528 | 0.121 | 0.0633 |  | 0.0517 |  | 0.0654 | 0.0721 | 0.0641 | 0.0798 |  |  | 0.0695 |  | 0.0932 |  |  | 
F163R | 0.0476 | 0.0762 | 0.0973 | 0.064 | 0.0774 | 0.0634 |  | 0.0795 | 0.0783 |  | 0.0677 | 0.0504 | 0.0495 | 0.0801 | 0.0645 | 0.0839 | 0.0697 |  | 0.0511
I164C | 0.0603 | 0.0571 | 0.0609 | 0.0535 | 0.0609 | 0.0697 | 0.0586 | 0.0592 | 0.0625 |  | 0.0499 | 0.0596 | 0.0559 | 0.0744 | 0.0686 | 0.061 |  | 0.0483 | 0.0558
I145F | 0.0645 | 0.0691 | 0.0769 | 0.0697 | 0.0792 |  | 0.0777 | 0.07 |  | 0.0627 | 0.065 |  |  |  |  | 0.0569 |  |  | 
I145D | 0.07 | 0.052 | 0.0409 | 0.0501 | 0.0528 | 0.055 | 0.084 |  | 0.0523 |  | 0.0289 |  | 0.059 | 0.0587 | 0.0479 | 0.0409 | 0.0598 |  | 
F180C | 0.0662 | 0.0581 | 0.0874 |  | 0.057 |  |  |  |  |  |  | 0.0503 | 0.0629 | 0.0903 | 0.0738 | 0.0736 | 0.0406 | 0.033 | 0.0406
F180L | 0.0591 | 0.0725 | 0.0654 |  | 0.0626 | 0.0653 |  |  |  |  | 0.0519 | 0.0762 | 0.0654 | 0.0506 | 0.071 | 0.0528 |  |  | 0.0697
F180V | 0.0555 | 0.0751 | 0.0535 |  | 0.0572 | 0.0471 |  | 0.0694 | 0.0613 | 0.0598 | 0.0557 | 0.0643 | 0.0556 | 0.0582 | 0.0535 | 0.0671 | 0.062 |  | 
V183T | 0.0743 | 0.0728 | 0.0688 | 0.0719 | 0.0641 | 0.066 |  | 0.0713 | 0.0711 |  | 0.0607 | 0.0612 |  | 0.0665 | 0.0353 | 0.0674 | 0.0757 |  | 
G150K | 0.0479 | 0.0648 | 0.0604 | 0.0493 | 0.0554 | 0.0766 |  | 0.0587 |  | 0.0477 | 0.0561 | 0.0571 | 0.054 | 0.04 |  | 0.0461 |  | 0.0602 | 
G150R | 0.0681 | 0.0674 | 0.0594 | 0.0528 | 0.0578 | 0.056 | 0.0502 | 0.052 | 0.0502 | 0.0693 | 0.0608 | 0.0517 | 0.0543 | 0.0648 | 0.0551 | 0.0647 |  |  | 0.0531
D161K | 0.0572 | 0.0709 | 0.0578 | 0.0702 | 0.0611 | 0.0507 | 0.0652 | 0.0551 | 0.0614 |  | 0.0618 | 0.0345 | 0.0281 |  | 0.0486 | 0.0711 |  |  | 0.0554
D161C | 0.0616 | 0.0489 | 0.0626 |  | 0.0707 |  | 0.0741 | 0.0592 |  | 0.0621 | 0.0573 |  | 0.0598 |  |  | 0.0548 |  | 0.0879 | 0.0418
D161F | 0.0442 | 0.055 | 0.0456 | 0.0581 | 0.0469 | 0.0445 | 0.0593 |  | 0.0565 |  | 0.0388 |  | 0.0644 | 0.0298 | 0.0484 | 0.0524 |  | 0.0648 | 0.0367
F187Q | 0.0368 | 0.061 | 0.0604 |  | 0.019 |  |  | 0.0466 | 0.0585 | 0.0226 | 0.0498 | 0.0592 | 0.0711 |  | 0.0593 | 0.0576 |  |  | 0.0462
F187I | 0.0722 | 0.0862 | 0.0604 | 0.0732 | 0.0694 | 0.0421 | 0.171 | 0.057 | 0.0655 | 0.0682 | 0.0636 |  |  |  | 0.044 | 0.0765 | 0.066 |  | 
